From PubChem BioAssay AID504832 (National Center for Advancing Translational Sciences (NCATS), 2011)
The whole screen tested about 310,000 compounds, of which about 18,000 (5.8%) were called active. The shares of active, inactive and inconclusive entries below differ from those in the screen. Calls follow the shape of the dose curve; as a rule, active = well fitted inhibition curve with a large enough effect; inconclusive = small, poorly fitted or top-dose-only effect, or another doubt; inactive = no such curve, though single readings can be large or run the other way. Potencies of inconclusive entries are left out as doubtful fits.

Test: Primary qHTS for delayed death inhibitors of the malarial parasite plastid, 48 hour incubation
Conditions: P. falciparum luciferase growth in erythrocytes; series mostly up to 28.7 µM; activity change, negative = inhibition: at the top concentration
How it was run: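 Growth was read as firefly luciferase luminescence after a 48 h, 37 C, 5% CO2 exposure of compounds to reporter-bearing P. falciparum cultures (0.1% parasitemia, 2% hematocrit final) in Albumax-supplemented RPMI 1640.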
% is scaled to controls: 0 for no effect and ±100 for the full control effect; potency is read from the fitted curve at half-maximal effect; tags tell the direction and shape of the fitted curve.

SMILES	activity change, negative = inhibition	Potency
COc1ccc(-c2ncncc2-c2ccc(OC)c(OC)c2)c(O)c1	inactive: -10.6%	–
Cc1cccc(C)c1NC(=O)C1=C(O)c2ccccc2N(C)S1(=O)=O	–	inconclusive [inhibitor, single point]
CCOC(=O)c1[nH]c2ccccc2c1NC(=O)C1CCCC1	inactive: 15.1%	–
COc1cccc(/C=C2\SC(=S)N(CCCC(=O)Nc3ccc(C(=O)O)cc3)C2=O)c1	–	inconclusive [inhibitor, single point]
CCOCc1nnc(NC(=O)c2cccc(OC)c2)s1	inactive: 33.6%	–
COc1cccc(OC)c1OCCCOc1ccc(C)cc1Br	–	inconclusive [inhibitor, single point]
C=CCn1c(C)c(C(C)=O)c(N2CCN(C(c3ccccc3)c3ccccc3)CC2)nc1=S	–	inconclusive [inhibitor, full curve]
CC1=CC(C)(C)N(C(=O)CSc2nncn2C)c2ccccc21	–	inconclusive [inhibitor, single point]
COc1ccc(N2CCC(CNC(=S)Nc3ccc(C)cc3C)C2)cc1 (centres undefined)	–	active: 8.28 µM
O=C(OCC(=O)N1CCc2ccccc21)c1ccc([N+](=O)[O-])cc1	inactive: -15.6%	–
CC1(C)CC(NCCN2CCN(C3=CC(=C(C#N)C#N)CC(C)(C)C3)CC2)=CC(=C(C#N)C#N)C1	–	inconclusive [inhibitor, partial curve, poor fit]
N#CC(C(=O)NCCc1ccccc1)c1nc2ccccc2nc1N1CCCCC1 (centres undefined)	–	inconclusive [inhibitor, single point]
CC(=O)Cn1c(CN2CCCCC2)nc2ccccc2c1=O	–	active: 10.4 µM
CC(=O)Oc1ccc(OC(C)=O)c2c1CC(C)=C(C)C2	–	active: 9.28 µM
COc1ccc2c(c1OC)C(=O)N(c1cccc(C(F)(F)F)c1)C2	inactive: 54.5%	–
CCN(C1CCCCC1)S(=O)(=O)c1ccc(S(=O)(=O)NCc2ccncc2)cc1	–	inconclusive [inhibitor, partial curve, poor fit]
CCOc1cc(/C=C2/C(=N)N3C=CSC3=NC2=O)ccc1OCCCOc1ccccc1C	–	inconclusive [inhibitor, partial curve, poor fit]
Cc1cccc(-n2c(C)nc3ccccc3c2=O)n1	inactive: 64.9%	–
COC(=O)c1c(F)c(F)c(N2CCOCC2)c(F)c1F	inactive: 4.35%	–
COc1ccc(N=C2NN=C(c3c(C)[nH]c4ccccc34)CS2)cc1	–	inconclusive [inhibitor, partial curve, poor fit]
Cc1nc(NC(=O)c2ccccc2)sc1-c1csc(Nc2cccc(Cl)c2)n1	–	active: 9.28 µM
Cc1ccc(S(=O)(=O)N2CC3(C)CN(S(=O)(=O)c4ccc(C)cc4)CC(C)(C2)C3)cc1	–	inconclusive [inhibitor, single point]
COc1ccc(C(=O)C23CN4CN(CN(C4)C2)C3)cc1	–	inconclusive [inhibitor, partial curve, poor fit]

SMILES	activity change, negative = inhibition	Potency
CCN(CCNC(=O)Nc1ccc(Cl)cc1)c1ccccc1	–	inconclusive [inhibitor, single point]
COc1ccc(CNC(=O)/C=C/c2ccc(S(=O)(=O)NCc3ccco3)cc2)cc1OC	–	inconclusive [inhibitor, partial curve]
O=C(CNC(=O)c1ccccc1Br)NNC(=O)c1cccs1	inactive: 0%	–
COc1ccc(OC)c(Nc2nc(NCc3ccco3)c3ccccc3n2)c1	–	inconclusive [inhibitor, full curve, poor fit]
Cc1ccc(Cl)cc1NC(=S)N(Cc1ccccc1)Cc1cccnc1	–	active: 10.4 µM
COc1ccc(-c2nn(C)c(=O)c3ccccc23)cc1CNC(=O)c1ccco1	–	inconclusive [inhibitor, single point]
NC1=NC2(CCCCC2)N(c2ccc(F)cc2F)C(N)=N1	–	inconclusive [inhibitor, full curve]
CC(C)OCCCN(CC(O)c1ccccc1)CC(O)c1ccccc1 (centres undefined)	–	active: 10.4 µM
O=C(NCC1CCCN1S(=O)(=O)c1ccccc1)c1cccc(Cl)c1 (centres undefined)	–	inconclusive [inhibitor, single point]
C=CCn1c(COc2ccc(Cl)cc2)nnc1SCc1ccc(C#N)cc1	–	inconclusive [inhibitor, single point]
CCS(=O)(=O)N1CCN(c2ccnc3cc(Cl)ccc23)CC1	–	active: 11.7 µM
CC(C)CC(=O)c1c[nH]c(C(=O)NCc2ccc(F)cc2)c1	inactive: 4.05% [at 0.00184 µM]	–
CC1CC(C)CN(S(=O)(=O)c2ccc(NC(=O)C3CC(=O)N(Cc4ccccc4)C3)cc2)C1 (centres undefined)	–	inconclusive [inhibitor, single point]
COc1ccc(CCNC(=O)COc2ccc(S(=O)(=O)NC(C)C)cc2)cc1OC	–	inconclusive [inhibitor, single point]
CCCCc1cc(=O)oc2c(CN3CCN(C)CC3)c(O)ccc12	–	active: 11.7 µM
CS(=O)(=O)NCC(c1cccnc1)N1CCN(c2ccccc2F)CC1 (centres undefined)	inactive: -5.68%	–
CCOc1ccccc1NC(=O)NCc1ccc2c(c1)OCO2	inactive: 7.86%	–
O=c1[nH]c(=O)n(Cc2ccco2)c2c1C(C(F)(F)F)(C(F)(F)F)N=C(c1ccc(F)cc1)N2	–	inconclusive [inhibitor, single point]
O=C1N(c2nncs2)CCN1[N+](=O)[O-]	–	inconclusive [inhibitor, single point]
O=C(COC(=O)c1cncc(Br)c1)NC1CCCCC1	–	inconclusive [inhibitor, full curve, poor fit]
COc1ccc(-n2ncc3c(SCC(=O)N4CCN(c5ccccc5OC)CC4)ncnc32)cc1	–	inconclusive [inhibitor, single point]
CC(=O)c1ccc(OCCCC(=O)N2CCN(S(=O)(=O)c3cccs3)CC2)cc1	–	inconclusive [inhibitor, partial curve]
Cc1ccc(Cl)cc1NC(=O)CC(O)(C(F)(F)F)C(F)(F)F	–	inconclusive [inhibitor, single point]

SMILES	activity change, negative = inhibition	Potency
Cc1cnc(NC(=O)c2cccs2)s1	inactive: 206%	–
CCOC(=O)C(Cc1ccccc1)NC(=O)CCc1nnc2ccc(N3CCOCC3)nn12 (centres undefined)	–	inconclusive [inhibitor, single point]
COc1ccc(OC)c(NC(=O)CN2CCc3ccccc3C2)c1	–	inconclusive [inhibitor, single point]
Nc1cc(=O)nc(SCC(=O)N(C2CCCCC2)C2CCCCC2)n1-c1ccccc1	–	inconclusive [inhibitor, single point]
CCCS(=O)(=O)c1c(S(=O)(=O)CCC)c2ccccn2c1C(=O)OC	inactive: 1.64%	–
COc1cc2c(cc1OC)C(SC)=NC(C)(C)C2	–	inconclusive [inhibitor, single point]
CCCCC(=Nc1ccc(N)cc1)C1=C(O)C(C(=O)OC)C(C)(C)CC1=O (centres undefined)	–	inconclusive [inhibitor, single point]
Oc1ccc(Cl)cc1/C=C/c1ccc2cccc(O)c2n1	–	inconclusive [inhibitor, full curve]
CC(C)=CCN1CCN(Cc2nc(C(C)C)cs2)CC1CCO (centres undefined)	–	inconclusive [inhibitor, full curve, poor fit]
CCc1cccc2c(C(=O)COC(=O)/C=C/c3ccccc3OC)c[nH]c12	–	inconclusive [inhibitor, partial curve]
COc1ccc(S(=O)(=O)N(CCCN2CCCC2=O)Cc2cc3c(C)ccc(C)c3[nH]c2=O)cc1	–	inconclusive [inhibitor, single point]
OC1(c2ccc(F)cc2)CC2CCC(C1)N2Cc1nnnn1C1CCCCC1 (centres undefined)	–	inconclusive [inhibitor, single point]
COc1ccc(C(=O)N/C(=C/c2ccccc2F)C(=O)NCCN2CCOCC2)cc1OC	inactive: -9.11%	–
N#Cc1c(SCC(=O)Nc2ccc(C(F)(F)F)cc2)sc2c(O)cc(=O)[nH]c12	–	inconclusive [inhibitor, full curve]
CC(=O)c1cccc(NC(=S)Nc2ccn(Cc3cccc4ccccc34)n2)c1	–	inconclusive [inhibitor, partial curve]
Cc1ccccc1C(C(=O)NC1CCCC1)N(C(=O)Cc1cccs1)c1ccc2c(c1)OCCO2 (centres undefined)	–	inconclusive [inhibitor, partial curve, poor fit]
CCC(=O)c1cc(F)c(N2CCN(S(=O)(=O)c3ccc(C)cc3)CC2)cc1C	–	inconclusive [inhibitor, single point]
Cc1ccccc1-n1c(=O)n(CCc2ccccc2)c(=O)c2[nH]cnc21	–	inconclusive [inhibitor, single point]
Cc1[nH]c2ccc(C(=O)NCCCN3CCCCCC3)cc2c1C	–	inconclusive [inhibitor, single point]
Cc1ccc(OCC(=O)N/N=C/c2cccnc2)cc1C	inactive: -25.4%	–
CC(C)Oc1ccc(C(CCN)C2CCCCC2)cc1 (centres undefined)	–	inconclusive [inhibitor, single point]
Cc1ccc(C)c(S(=O)(=O)N2CCCC2CNC(=O)C(=O)NC2CC2)c1 (centres undefined)	–	inconclusive [inhibitor, full curve, poor fit]
COc1ccccc1OCCNC(=O)c1cccc(S(=O)(=O)NCc2ccccc2)c1	–	inconclusive [inhibitor, single point]
